Among the data in paper PMC12136788 are binding signal values, retold here.

Positions count from the first letter of the chain named. The list shows a part of the results.

T1: UNK ZnF1-3 (human, UniProt Q9C0B0 31-174)
T1 sequence: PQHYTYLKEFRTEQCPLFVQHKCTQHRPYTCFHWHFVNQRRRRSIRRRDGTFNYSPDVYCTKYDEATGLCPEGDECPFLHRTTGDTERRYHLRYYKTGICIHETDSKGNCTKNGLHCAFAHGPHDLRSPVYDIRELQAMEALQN

B1: chr8:3604753:3604754:+_ENSMUSG00000044433_ENSMUST00000057028|mus_mus|FALSE|FALSE (ssRNA)
RNA: GGGAGUUCUACAGUCCGACGAUCGGGUGGUGUGAGUACCCUUGUCAAAGGUGCAAGCUUCAGCUCUGCCGGCCUUGCAUGUUUUGGACUACGGGGUGUUGGGCUGGGGCCUGGCCCAGGGCUGCGUCGGGCAGCUGGGGCACGCAACAGAGGAUUGAGCAUCA
B2: chr11:46405157:46405158:+_ENSG00000110492_ENST00000395566|hu_hu|FALSE|FALSE (ssRNA)
RNA: GGGAGUUCUACAGUCCGACGAUCCACUUAGGGGUGGGGCUGGGGAGUGAGAGGGACAAGGCAGGGCAUGAUUGAUUAAAGCUAACGAGCAGACAGAAGGCACUGGUGGGUCACAUCUCGGGCCUGGGAGAGGGAGGGCGUGGGCAACAGAGGAUUGAGCAUCA
B3: chr1:85784824:85784825:-_ENSG00000153904_ENST00000284031|hu_hu|FALSE|FALSE (ssRNA)
RNA: GGGAGUUCUACAGUCCGACGAUCAGUAUCUUUCCUUUUCAAAAAUAACAUUAUGCUAAUGAGAACAUCAAAGAAGUAAUACUAUGCUGCAAGUAAUUUAGGUUUUCACAUCAUCAAUCAUAUAGGGAGUCCAAAGAAGCCAGCCAACAGAGGAUUGAGCAUCA
B4: chr10:7421922:7421923:+_ENSMUSG00000040021_ENSMUST00000165952|mus_mus|motif|central (ssRNA)
RNA: GGGAGUUCUACAGUCCGACGAUCAUCAGACUGACCACCACCAUUCUGAACUCCAGGUCGCCCUGGUGUAAAGUUAAAUUUGCGGGUACUCUGCAUGAUGAUGGGUUGUCUACCAACUGGAACAGAACUAAUGGCCCUCUGAGCCAACAGAGGAUUGAGCAUCA
B5: chr12:16043544:16043545:+_ENSG00000023734_ENST00000419869|hu_hu|motif|central (ssRNA)
RNA: GGGAGUUCUACAGUCCGACGAUCUUUGUUCAAGUCAUAUAUGCGUAACAGUUUAUCCUGUCCCCCGGUUAACAAAUAAUUACGGUCCUGCGUGAAAUCCACAGUCUUGACAAUGUGUUUAUGAGCCAGGGUCAUCAAUUCAUCCAACAGAGGAUUGAGCAUCA
B6: chr2:202488911:202488912:-_ENSG00000155755_ENST00000286196|hu_mus|hu_hu_hu_mus_False|48_58 (ssRNA)
RNA: GGGAGUUCUACAGUCCGACGAUCAUUGAAACAUUUUUCAUAAUCUCCAGUAGCAUUUCAGCAUUAUGUAACAAAAGAUCUAUUACAAAUACACAUGUCUUAUAAAAAUACACUUAAAAACACGAGUGGGGAGCGCAGGCGCCACAACAGAGGAUUGAGCAUCA
B7: chr6:52679276:52679277:+_ENSMUSG00000004535_ENSMUST00000080723|mus_mus|motif|central (ssRNA)
RNA: GGGAGUUCUACAGUCCGACGAUCGUAACAGAACUGAUAAAAUUCUCCAUCAUCAUUUGGAAGGUAAUAUCCUUGAAAUGCGGGUACACAAUUGACUGUUGAUCCUUCCACAUAAUGUUCAGGCAUAGGAGACCAUAAAAAUGUCAACAGAGGAUUGAGCAUCA
B8: chr10:32150518:32150519:-_ENSG00000165322_ENST00000344936|hu_hu|FALSE|FALSE (ssRNA)
RNA: GGGAGUUCUACAGUCCGACGAUCUCCAUUAAUCUGAAUUGCCGGGCUCCCAGGAAGUGGGGGAAGAGCAGACUGGGAUAUUUUCAGUUCUUGAAGGUUAGCAUAGACAGGAGAAUCUGGCCUUCCUUGAUUUGGAGGUGUGGUCAACAGAGGAUUGAGCAUCA
B9: 73960316_73968448_362_CDS_ENSMUSG00000022110_ENSMUST00000160507|mouse|control|control (ssRNA)
RNA: GGGAGUUCUACAGUCCGACGAUCCUUUGAUCCUAAUUUUUUGGCAAUUGCGUAAGCUUCAUCGGAUGACUUUGCCACGAAGCCUUUGGGAACAGAGACACCCGCUUCCUGCAAUAACUCCAUACUCAAGUAUUCAUGCAGCGACAACAGAGGAUUGAGCAUCA
B10: chrX:69798090:69798091:-_ENSMUSG00000031343_ENSMUST00000055966|mus_mus|mus_mus_mus_hu_False|38_78 (ssRNA)
RNA: GGGAGUUCUACAGUCCGACGAUCAAGUCCCCGGGUUCUUGUCGUCUUGAUUCCCCUUGGCUAGUGGUUCCAGGGAGAAUAUUAAUCAGGAAAAGAAGUACAACUCUGGUCAUGUAACAGUGACUUGUUUGUGUGAUUAUCAUCCAACAGAGGAUUGAGCAUCA
B11: chr19:8913615:8913616:-_ENSMUSG00000071658_ENSMUST00000096259|mus_hu|mus_mus_mus_hu_False|8_88 (ssRNA)
RNA: GGGAGUUCUACAGUCCGACGAUCAGGGUACCAAAACCUUCUGCCUGAGAUAGGUGCCCCACCCAGUAGGGAGUUGCAGCUGAAAGUAUCUGAUGCAGAAGCAGUGACUAUACGAAAGGAGGCCCCUGAUGCUCAGAAGGCCAGCAACAGAGGAUUGAGCAUCA
B12: chr11:77340908:77340909:-_ENSG00000074201_ENST00000525064|hu_hu|hu_hu_hu_mus_True|48_98 (ssRNA)
RNA: GGGAGUUCUACAGUCCGACGAUCGUUUGGAUCCCUGGAUAAUGCAUGUAAACUAAUGGUGGGGUAUUCCAGUGAGAAUCCUAAUCCAGAGCCAUCUAACCAGGACAGGCGGCUCUCCGCGAUGUAAAGCGUGCCGGUGCCGAGCAACAGAGGAUUGAGCAUCA
B13: chr12:25693320:25693321:+_ENSMUSG00000036333_ENSMUST00000066652|mus_mus|FALSE|FALSE (ssRNA)
RNA: GGGAGUUCUACAGUCCGACGAUCGUCAACUCGGAAUAUAGCCAAAAGAGUAAUUCCAGCAAUAAUGCAGCCAACAAUAAAAAGAAAGAUUAUAAAAGACGGGAGACAGCAUGUUUUUUUCCAUUUCUUUUUACCCUGAGAAUCCAACAGAGGAUUGAGCAUCA
B14: chr11:46405157:46405158:+_ENSG00000110492_ENST00000395566|hu_hu|hu_hu_hu_mus_False|48_88 (ssRNA)
RNA: GGGAGUUCUACAGUCCGACGAUCCCCUCCCCACUUUGGGCACUUGGUGAGAGGGACAGAGGACAGGCGUGAUUGACAGAGCUGACAAGCAGACAGAAGGCACUGGUGGGUUAUAUCUUGGGCCUGUGGGAGAGGAGGGCUCCGCAACAGAGGAUUGAGCAUCA
B15: chr6:40426449:40426450:+_ENSMUSG00000029911_ENSMUST00000121360|perfect_dup|motif|central (ssRNA)
RNA: GGGAGUUCUACAGUCCGACGAUCGACAUCACCCAGUUGGUAAACUUCACUAUCCCCUGAUCGCCACAUCUCAUUAGUUGCGGGAGAAAAUAUUGUGACUGGAUUUUUUCCUUCCACCUGUCUCAAGACAGGGUCCUGACCCACCAACAGAGGAUUGAGCAUCA
B16: chr10:33190432:33190433:-_ENSG00000150093_ENST00000302278|hu_mus|hu_hu_hu_mus_True|38_88 (ssRNA)
RNA: GGGAGUUCUACAGUCCGACGAUCUACAUUUUCCAAACCUGCAUGUGAGUAAAACCAUGGCCACAGAGCCCCAAAACUACCCUACUGUGACUAAGAUAAUUGCUACUUGAGCUUGGUGUUGCAAAAUCCGCCUGAGUAGGAUUCCAACAGAGGAUUGAGCAUCA
B17: chr14:102368134:102368135:+_ENSG00000078304_ENST00000445439|hu_mus|motif|central (ssRNA)
RNA: GGGAGUUCUACAGUCCGACGAUCAAGAGGCUCCAUGAUCUUCACAAACUCUGAUGGUUCAAUUACAUCUAAAAUUUCUUCGGAUUCAUUUAAGAACAUUACUUCUUUUGGACUGUGAGUCUUUGGCCAGUAUUUGAGAAGUGCCAACAGAGGAUUGAGCAUCA
B18: chr4:140556289:140556290:+_ENSMUSG00000036622_ENSMUST00000037055|mus_mus|mus_mus_mus_hu_False|68_88 (ssRNA)
RNA: GGGAGUUCUACAGUCCGACGAUCGAUGGAGCUCACCAGGCCCCCUUUGGCUGUGCAGAACCCUGUGCGAGUCACCACUGCCAGGACGUGCGGUCCCACAUAGGCCCGGGCCUGCAAGAUGAGGGUCCCGCAGAAGAGUGUGUGCAACAGAGGAUUGAGCAUCA
B19: chr13:97419678:97419679:-_ENSMUSG00000021670_ENSMUST00000022176|mus_hu|motif|central (ssRNA)
RNA: GGGAGUUCUACAGUCCGACGAUCUUUUAUUACAACAUAUACAGAUUUGAUACAGUUUACAAAAAAAACUAGAUUUUUCAACGGAAUAAAAAUGUCUUUUAAGCAAUUAAAGUUGGCUUAGAGACAUGGUAUUUUUCUUUCAAACAACAGAGGAUUGAGCAUCA
B20: chr7:32526834:32526835:-_ENSG00000106355_ENST00000409292|hu_hu|motif|central (ssRNA)
RNA: GGGAGUUCUACAGUCCGACGAUCUAGAAAGUGGGAAAAAAAAUUCCAUUUUCUUGUCAUUAUAAGCCAAAACAAAAUCGGGUGUAAGUCAAGGAAACUCAUUCACACUUCAGGUCCUUCUCCUCCAGGAACCAGCAUUGUUAUCAACAGAGGAUUGAGCAUCA
B21: chr12:16043544:16043545:+_ENSG00000023734_ENST00000419869|hu_mus|motif|central (ssRNA)
RNA: B5 RNA with U45C, A47G, G66A, A71G, A74G, A75G, A81G, C90U, U117C
B22: chr14:66209396:66209397:-_ENSMUSG00000022031_ENSMUST00000022609|mus_hu|motif|central (ssRNA)
RNA: GGGAGUUCUACAGUCCGACGAUCAGAUCGAUGUCUUUCCCCUGCUCGUGGGCUUCAAUCAGUUGUUUAAUAACAUCUCCGGUAGUCAGCAUCAUCAGCUCAGCAGGGCUGAGAUCUCCAGACUAUGGAGGAUUCACCACCAGACAACAGAGGAUUGAGCAUCA

The test concerns the target T1, UNK ZnF1-3. The experiment in a line: nsRBNS (natural sequence RNA bind-n-seq); RBNS binding buffer (assumed for nsRBNS): 25 mM Tris pH 7.5, 150 mM KCl, 3 mM MgCl2, 0.01% Triton X-100, 500 ug/ml BSA, 20 U/ml SUPERase-In, 4 C; UNK is unkempt and MSI1 is Musashi-1; names of the RNAs are library labels; protein concentration not given here; high values mean tight binding.
In turn, B1 yielded a binding signal of 0.744 enrichment R.

Regarding B2, the binding signal was 2.63 enrichment R.

Turning to B3, the binding signal was found to be 2.56 enrichment R.

Molecule B4 displayed a binding signal of 1.41 enrichment R.

Consider B5, for which the binding signal is 1.1 enrichment R.

In the case of B6, the binding signal worked out at 1.03 enrichment R.

Consider B7, for which the binding signal was found to be 0.811 enrichment R.

The molecule B8 gave a binding signal of 1.46 enrichment R.

The molecule B9 gave a binding signal of 0.722 enrichment R.

For the molecule B10, the binding signal amounted to 0.781 enrichment R.

As for B11, the binding signal was found to be 0.988 enrichment R.

Consider B12, for which the binding signal stood at 1.54 enrichment R.

In turn, B13 came in with a binding signal of 1.94 enrichment R.

B14 had a binding signal of 2.9 enrichment R.

The molecule B15 displayed a binding signal of 0.941 enrichment R.

With B16, the binding signal came out at 0.923 enrichment R.

In turn, B17 returned a binding signal of 0.747 enrichment R.

Take B18: the binding signal stood at 1.15 enrichment R.

B19 registered a binding signal of 0.839 enrichment R.

The molecule B20 returned a binding signal of 1.35 enrichment R.

As for B21, the binding signal amounted to 1.01 enrichment R.

B22 registered a binding signal of 0.753 enrichment R.
